In test [1] the target is T1, human lysozyme (human, UniProt P61626 19-148).
T1 construct: mature; Coated on a CM5 chip for Biacore; also called commercial native human lysozyme (from human neutrophils); Cat-No. L8402
T1 sequence (looked up): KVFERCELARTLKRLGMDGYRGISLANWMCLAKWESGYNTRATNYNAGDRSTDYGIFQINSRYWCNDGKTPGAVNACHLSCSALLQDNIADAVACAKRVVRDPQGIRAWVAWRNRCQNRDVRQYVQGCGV
The test can be described thus: immunofluorescence on fixed, permeabilised HT29 cells, SIP format, 5 µg/ml. How it is done:
Coverslips were placed into culture dishes (100 mm×20 mm), and HT29 cells (both human adenocarcinoma cell lines) were then seeded at 100,000 cells/mL in the culture dishes respectively. The culture was incubated until proper confluency was reached. Cells were fixed and permeabilized by ice-cold methanol incubation at −20° C. Cells were then blocked with 10% FBS/2% BSA. Affinity-purified antibody CT01, in SIP format (final concentration 5 μg/ml) was first incubated with the cells, followed by incubation with a rabbit anti-human IgE antibody (1:500 dilution; DAKO). The antibody was then detected with goat anti-rabbit IgG Alexa 488 (1:1000 dilution; Invitrogen). DAPI was used for nuclei staining. The anti-hen egg Lysozyme SIP antibody (KSF) was used as an isotype-negative control for the staining.

The target in test [2] is T1, human lysozyme. The test can be described thus: Biacore (SPR), scFv over CM5 chip coated with native human lysozyme. How it is done:
CT01 was analysed for antigen binding by Biacore using a CM5 chip coated with commercial native human lysozyme (from human neutrophils; Cat-No. L8402; SIGMA) to a final coating density of 2000 resonance units (RU). The flow rate for the Biacore analysis was set at 20 μL/min.

The target in test [3] is T2, D domain of human Tenascin-C (human, UniProt P24821 1622-1711, limits assumed).
T2 construct: domain: D domain; Coated on a CM5 chip; also called domain D of human Tenascin-C; human tenascin-C D domain
T2 sequence (looked up): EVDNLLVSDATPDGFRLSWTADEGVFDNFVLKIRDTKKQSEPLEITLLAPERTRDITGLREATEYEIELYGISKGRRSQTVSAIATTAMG
The test can be described thus: Biacore (SPR), scFv over CM5 chip coated with D domain of human tenascin-C.

Test [4] deals with T3, BCD domains of murine tenascin-C (murine, UniProt Q80YX1 1349-1620, limits assumed).
T3 construct: domain: BCD domains; Coated on a CM5 chip; also called domain BCD of murine Tenascin-C
T3 sequence (looked up): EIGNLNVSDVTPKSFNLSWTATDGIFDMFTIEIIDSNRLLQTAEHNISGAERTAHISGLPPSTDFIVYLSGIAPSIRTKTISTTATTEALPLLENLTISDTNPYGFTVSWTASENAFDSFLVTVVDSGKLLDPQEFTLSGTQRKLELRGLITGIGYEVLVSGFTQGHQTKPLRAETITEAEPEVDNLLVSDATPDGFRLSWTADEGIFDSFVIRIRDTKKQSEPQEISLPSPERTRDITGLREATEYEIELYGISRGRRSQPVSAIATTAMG
Nature of the test: Biacore (SPR), scFv over CM5 chip coated with BCD domain of murine tenascin-C.

B1: CT01 in SIP format (other)
chain: [letters of about 100 residues omitted]PAPRARFDYWGQGTLVTVSSGGGGSGGGGSGGGGSSELTQDPAVSVALGQTVRITCQGDSLRSYYASWYQQKPGQAPVLVIYGKNNRPSGIPDRFSGSSSGNTASLTITGAQAEDEADYYCNSSPTPAPGVVFGGGTKLTVLGSGGSGGPRAAPEVYAFATPEWPGSRDKRTLACLIQNFMPEDISVQWLHNEVQLPDARHSTTQPRKTKGSGFFVFSRLEVTRAEWEQKDEFICRAVHEAASPSQTVQRAVSVNPESSRRGGC
notes: Small immunoprotein: scFv fused to the CH4 domain of human IgE; also called SIP(CT01)
Consider B1, for which the binding result in the test with human lysozyme [1] was “binds”.

B2: scFv(CT01) (scFv)
scFv: [letters of about 100 residues omitted]PAPRARFDYWGQGTLVTVSSGGGGSGGGGSGGGGSSELTQDPAVSVALGQTVRITCQGDSLRSYYASWYQQKPGQAPVLVIYGKNNRPSGIPDRFSGSSSGNTASLTITGAQAEDEADYYCNSSPTPAPGVVFGGGTKLTVLG
notes: also called anti-human lysozyme antibody CT01
Take B2: in the test with human lysozyme [2], the affinity, expressed as Kd, was 890 nM; the koff is 0.0077 s⁻¹; the kon is 8720 M⁻¹ s⁻¹.

B3: scFv(CPR01.1) (scFv)
scFv: [letters of about 100 residues omitted]GGAPFDYWGQGTLVTVSSGGGGSGGGGSGGGGSSELTQDPAVSVALGQTVRITCQGDSLRSYYASWYQQKPGQAPVLVIYGKNNRPSGIPDRFSGSSSGNTASLTITGAQAEDEADYYCNSSLRGTLPVVFGGGTKLTVLG
With B3, in test [3], the affinity, expressed as Kd, was 850 nM; the off-rate (koff) was 0.067 s⁻¹; the kon amounted to 78300 M⁻¹ s⁻¹. In test [4], this molecule displayed a Kd of 430 nM, a koff of 0.064 s⁻¹ and a kon of 150000 M⁻¹ s⁻¹.

The values are drawn from US20190062414A1 (PHILOGEN S P A, published 2019).
